± gives the uncertainty stated by the source. For part of its entries the source gives two or more results. They are shown here; other results are not. There may be further records. Values that stand side by side are repeats (runs, samples, wells, individuals or studies). Brackets tell where a record comes from. Letters count within one entry.
With COC(C)(C)C as the molecule, how does the viscosity (303.15 K, 101 kPa) read?
The viscosity was 0.3387 ± 0.0072 mPa·s [study A] and 0.359 ± 0.05 mPa·s [study B] and 0.349 ± 1 mPa·s [study C] and 0.349 ± 0.003 mPa·s [study D].

With Clc1cccc2ccccc12 as the molecule, how does the viscosity (298.15 K, 101.33 kPa) read?
Its viscosity is 2.806 ± 0.063 mPa·s [study A] and 3.02 ± 0.15 mPa·s, 3.02 ± 0.17 mPa·s [study B] and 2.783 ± 0.12 mPa·s, 2.783 ± 0.11 mPa·s [study C].

What about the viscosity (303.15 K, 101.33 kPa) of the same molecule?
Its viscosity is 2.487 ± 0.056 mPa·s [study A] and 2.707 ± 0.14 mPa·s, 2.707 ± 0.15 mPa·s [study B] and 2.502 ± 0.11 mPa·s, 2.502 ± 0.1 mPa·s [study C].

What about the viscosity (308.15 K, 101.33 kPa) of the same molecule?
Its viscosity is 2.214 ± 0.051 mPa·s [study A] and 2.437 ± 0.12 mPa·s, 2.437 ± 0.13 mPa·s [study B] and 2.259 ± 0.1 mPa·s, 2.259 ± 0.091 mPa·s [study C].

With OC1CCCC1 as the molecule, how does the viscosity (313.15 K, 100 kPa) read?
Its viscosity is 5.76 ± 0.17 mPa·s [study A] and 5.442 mPa·s [study B].

Which viscosity (298.15 K, 101 kPa) does the source give for Clc1ccccc1 here?
Its viscosity is 0.75 ± 0.02 mPa·s [study A] and 0.754 ± 0.0076 mPa·s [study B] and 0.751 ± 0.008 mPa·s [study C] and 0.7824 ± 0.008 mPa·s [study D] and 0.7577 ± 0.02 mPa·s [study E] and 0.7542 ± 0.0065 mPa·s [study F] and 0.763 ± 0.076 mPa·s [study G].

And the viscosity (303.15 K, 101 kPa)?
The viscosity was 0.702 ± 0.024 mPa·s [study A] and 0.713 ± 0.011 mPa·s [study B] and 0.7126 ± 0.029 mPa·s [study C] and 0.7134 ± 0.0068 mPa·s [study D] and 0.702 ± 0.015 mPa·s [study E] and 0.7215 ± 0.021 mPa·s [study F] and 0.675 ± 0.007 mPa·s [study G] and 0.7401 ± 0.0078 mPa·s [study H].

And the viscosity (308.15 K, 101 kPa)?
Its viscosity is 0.669 ± 0.018 mPa·s, 0.6775 ± 0.012 mPa·s, 0.6775 ± 0.023 mPa·s, 0.6685 ± 0.014 mPa·s, 0.669 ± 0.023 mPa·s, 0.6987 ± 0.0076 mPa·s, 0.669 ± 0.008 mPa·s, 0.678 ± 0.011 mPa·s, 0.669 ± 0.014 mPa·s, 0.7009 ± 0.07 mPa·s, 0.6795 ± 0.021 mPa·s [several studies].

And the viscosity (313.15 K, 101 kPa)?
The viscosity was 0.6469 ± 0.0058 mPa·s, 0.638 ± 0.017 mPa·s, 0.637 ± 0.017 mPa·s, 0.6387 ± 0.011 mPa·s, 0.6387 ± 0.022 mPa·s, 0.628 ± 0.011 mPa·s, 0.63 ± 0.022 mPa·s, 0.6574 ± 0.0074 mPa·s, 0.63 ± 0.013 mPa·s, 0.6323 ± 0.026 mPa·s, 0.632 ± 0.011 mPa·s, 0.6434 ± 0.021 mPa·s [several studies].

Which results are given for C=CC(=O)OCC?
viscosity (298.15 K, 101 kPa): 0.533 ± 0.022 mPa·s [study A] and 0.518 ± 0.007 mPa·s [study B] and 0.537 ± 0.07 mPa·s [study C] and 0.53 ± 0.008 mPa·s [study D]; viscosity (308.15 K, 101 kPa): 0.4643 ± 0.019 mPa·s [study A] and 0.456 ± 0.007 mPa·s [study B] and 0.472 ± 0.07 mPa·s [study C] and 0.465 ± 0.007 mPa·s [study D]

For CCCCn1cc[n+](C)c1.F[P-](F)(F)(F)(F)F, which viscosity (298.15 K, 101 kPa) is on record?
The viscosity was 181.5 ± 73 mPa·s [study A] and 205.6 ± 7.3 mPa·s [study B] and 261 mPa·s [study C].

Which viscosity (308.15 K, 101 kPa) does the source give for CCc1ccccc1 here?
Its viscosity is 0.567 ± 0.016 mPa·s [study A] and 0.5537 ± 0.014 mPa·s [study B] and 0.5484 ± 0.023 mPa·s [study C] and 0.5668 ± 0.0051 mPa·s [study D].

From the CheMixHub viscosity set
